# According to PubChem BioAssay AID463173 (ICCB-Longwood Screening Facility, Harvard Medical School, 2010):
# Among all 52,000 compounds or so, about 4,300 (8.3%) were called active. Rule as the data show it: active = survival mostly below about 52% (no sharp cut-off); inactive = mostly above about 56%. The list shows a part of the results.
# Test system: DeltatarO mutant
# Assay: growth inhibition of S. aureus wild type versus tarO mutant, primary screen, teichoic acid synthesis inhibitors, RN4220, OD600 (AID 463173)
# Details: OD600, 18 h, hits give low values, screened at 18.75 µg/mL (by protocol)
row,Compound,survival
1,CSc1nc(C)cc(Nc2c(C)cc(C)cc2C)n1,inactive: 59%
2,CCc1ccc(OCCCSc2nc(-c3ccc(C(C)(C)C)cc3)nc3cc(=O)[nH]n23)cc1,inactive: 80%
3,O=C(O)CSc1nnc(-c2ccccc2)o1,inactive: 69%
4,COC(=O)c1ccc(NS(=O)(=O)c2ccc(-n3cccn3)cc2)cc1,inactive: 87%
5,CC(=O)c1ccc(N2CCN(S(=O)(=O)c3ccc4c(c3)CC(C)N4C(=O)C3CCC3)CC2)cc1 (centres undefined),inactive: 80%
6,COc1cccc(CNC(=O)C2CCN(c3nc4ccc(Cl)cc4[nH]3)CC2)c1,inactive: 101%
7,CCCCc1cc(=O)oc2cc(C)c3c(C)coc3c12,inactive: 78%
8,COC(=O)C1C(c2ccccc2)C(C(=O)OCc2ccco2)C1c1ccccc1 (centres undefined),inactive: 97%
9,O=C(NCCn1cc(SCc2ccc(F)cc2)c2ccccc21)c1c(F)cccc1F,active: 53%
10,CCOC(=O)c1cccc(NC(=O)c2ccc3c(c2)nnn3C2CCCC2)c1,inactive: 73%
11,Cc1ccc(Cn2c(C(=O)Nc3cccc(Cl)c3)cc3sccc32)cc1,inactive: 80%
12,Cn1nnnc1SCCNCc1ccccc1OCc1ccccc1F,inactive: 140%
13,Cn1cnc(S(=O)(=O)N2CCCC(C(=O)Nc3ccc(F)cc3Cl)C2)c1 (centres undefined),inactive: 70%
14,CCOc1ccc(NC(=O)c2cc3c(-c4ccccc4F)nn(C)c3s2)cc1,inactive: 109%
15,O=C(CCSCc1cnn(-c2ccccc2)c1-n1cccc1)NCc1ccccc1F,inactive: 61%
16,S=c1[nH]c2ccccc2n1CCOc1ccccc1,inactive: 110%
17,Cn1c(SCc2ccc(F)cc2)nc2c([nH]c3ccccc32)c1=O,inactive: 88%
18,COc1ccccc1C(=O)Nc1c(C(=O)N(CCN(C)C)Cc2ccco2)oc2ccccc12,inactive: 55%
19,C=Cc1ccc(Cn2c(C(=O)O)c(CNCc3cccs3)c3ccc(C)cc32)cc1,inactive: 94%
20,Cc1ccc(S(=O)(=O)c2cn(C)c3cc(N4CCCCCC4)c(F)cc3c2=O)cc1,inactive: 85%
21,CCOC(=O)c1ccc(NC(=O)c2c(NCc3cccs3)sc3c2CCCCC3)cc1,inactive: 104%
22,O=S(=O)(NCc1nc2cccnc2n1Cc1ccc(F)cc1)c1ccc2c(c1)CCCC2,inactive: 89%
23,O=S(=O)(NCCc1csc2nc(-c3ccc(F)cc3)nn12)c1ccc(Br)cc1,inactive: 94%

row,Compound,survival
1,Cc1cc(NC(=O)Cn2c(=O)nc(-c3ccccc3F)c3cc(Cl)ccc32)ccc1Br,inactive: 160%
2,Nc1nc2sc3c(c2cc1C(=O)N1CCOCC1)CCCC3,inactive: 72%
3,Cc1ccc(-c2nc(C#N)c(NCCN3CCCCC3)o2)cc1,inactive: 85%
4,CCOC(=O)c1c(C)oc2nc(C)nc(N3CCN(c4ccc(C(C)=O)cc4)CC3)c12,inactive: 86%
5,COc1cccc(C(=O)N(Cc2sccc2C)C2CCS(=O)(=O)C2)c1 (centres undefined),inactive: 92%
6,CC(C)(C)OC(=O)N1CCC(c2c(C(=O)NCc3ccc(F)cc3)cnn2-c2ccc(F)cc2)CC1,active: -5%
7,COc1ccc(OCC2c3cc(OC)c(OC)cc3CCN2C(=O)c2ccc(F)cc2)cc1 (centres undefined),inactive: 94%
8,CCN(CC)CCNC(=O)c1sc2nc3n(c(=O)c2c1C)CCCCC3,inactive: 53%
9,COc1ccc(C(=O)Nc2cc(-c3cccc(C)c3)nn2-c2ccccc2)cc1,inactive: 102%
10,Cc1ccc(-c2cn3c(n2)sc2cc(C(=O)NCCCN4CCCCC4)ccc23)cc1,active: -3%
11,COc1ccc2cc3cc(C(=O)N4CCN(c5ccc(C(C)=O)cc5)CC4)sc3nc2c1Cl,inactive: 64%
12,CCOC(=O)c1ccc(NC(=O)CC2C(=O)N(c3cccc(OC)c3)C(=O)N2C2CCCCC2)cc1 (centres undefined),inactive: 63%
13,Cc1cc(C)nc(SCCSc2nc(C)cc(C)n2)n1,inactive: 87%
14,COc1nc(N2CCCCCC2)nc(N2CCCCCC2)n1,inactive: 66%
15,Cc1ccc(OCCn2cc(C(=O)C3CCCCC3)c3ccccc32)cc1,active: 3%
16,O=S(=O)(N1CCCCC1)N1CCN(c2ccc(F)cc2)CC1,active: 65%
17,CC1=C(C(=O)Nc2ccccc2C)C(c2ccncc2)n2nc(SCc3ccccc3)nc2N1 (centres undefined),inactive: 65%
18,COc1cc(C(=O)N2CCc3ccccc32)cc(OC)c1OC,inactive: 104%
19,COc1cn(CC(=O)Nc2ccc(F)cc2)c(CN2CCCCC2)cc1=O,inactive: 90%
20,COc1cccc(CSc2nc3n(n2)C(c2cccs2)C(C(=O)Nc2ccccc2C)=C(C)N3)c1 (centres undefined),inactive: 78%
21,CCOC(=O)c1c(N)n(-c2ccc(Cl)c(Cl)c2)c2nc3ccccc3nc12,inactive: 94%
22,O=C(O)CSc1nnc(-c2ccccc2)n1-c1ccccc1,inactive: 95%
23,CCN1CCN(c2cc(C)c3cc(NC(=O)c4cccc(C(F)(F)F)c4)ccc3n2)CC1,inactive: 63%

row,Compound,survival
1,Cc1ccc(NC(=O)Cn2c(=O)n(-c3ccc(Cl)c(Cl)c3)c(=O)c3c(C)c(C)sc32)c(C)c1,inactive: 95%
2,Cc1cc(S(=O)(=O)N2CCOCC2)ccc1N=Cc1c(C)[nH]n(-c2ccc(Cl)cc2)c1=O,inactive: 90%
3,Cc1cccc(Cn2c(CN3CCC(C(=O)NCc4cccnc4)CC3)cc3ccccc32)c1,inactive: 74%
4,O=C(NCc1ccc(Cl)cc1)c1ccc2c(Cl)c3c(nc2c1)CCCC3,inactive: 70%
5,Cc1ccc(OCCSc2nnc(-c3cccs3)o2)cc1Cl,active: 45%
6,Cc1ccc(C)c(N2CCN(C(=O)CCC(=O)Nc3ccc4nc(N5CCCCC5)cc(C)c4c3)CC2)c1,inactive: 51%
7,CC(=O)Nc1ccc(NC(=O)C2CCN(c3c(NC(C)=O)c(C)nn3-c3ccccc3)CC2)cc1,inactive: 67%
8,CCOC(=O)c1ccc2nc(C)cc(Nc3cccc(C(=O)O)c3)c2c1,inactive: 173%
9,CCOC(=O)c1c(C)n(-c2ccccc2)c2ccc(OC(=O)c3ccccc3NC(=O)C(C)C)cc12,active: 47%
10,CCOC(=O)c1cccc(NC(=O)CCCn2nc(C)c3c(C)n(-c4ccccc4)nc3c2=O)c1,inactive: 58%
11,COc1ccc(Cl)cc1NC(=O)Cn1ncc2c3ccccc3n(C)c2c1=O,inactive: 135%
12,Cc1ccc2[nH]c3c(=O)n(CC(=O)NCc4ccco4)ncc3c2c1,inactive: 67%
13,CCCN(Cc1cccs1)C(=O)Nc1cc(Cl)ccc1C,inactive: 64%
14,Cc1nn(CC(=O)NCc2ccc(F)cc2)c2ccccc12,inactive: 82%
15,Cc1nc(N2CCCC2)ncc1C(=O)NCc1cccc(Cl)c1,inactive: 90%
16,O=C(Nc1ccccc1)/C(=C/c1ccccc1)NC(=O)c1ccco1,inactive: 110%
17,CC(C)Cc1ccc(S(=O)(=O)N2CCC(c3ccncc3)CC2)cc1,inactive: 130%
18,COc1ccccc1N1CCN(C(=O)Cn2c(=O)n3nc(-c4ccc(C)cc4)nc3c3ccccc32)CC1,inactive: 86%
19,COc1ccc(NC(=O)c2cccc(N3CCCS3(=O)=O)c2)cc1OC,inactive: 67%
20,COC(=O)c1ccc(NC(=O)CC2C(=O)N(c3cccc(OC)c3)C(=O)N2Cc2ccco2)cc1 (centres undefined),inactive: 70%
21,COc1ccc(C)cc1NC(=O)CN1c2ccccc2S(=O)(=O)c2ccccc21,inactive: 74%
22,Cc1nnc(N2C(=O)c3oc4ccccc4c(=O)c3C2c2ccc(C(C)(C)C)cc2)s1 (centres undefined),inactive: 134%
23,CCc1ccc(NC(=O)CSc2nc3ccccc3nc2Cc2ccc(C)cc2)cc1,inactive: 73%

row,Compound,survival
1,COc1ccc(-c2nc3cc(C(C)C)ccc3o2)cc1NC(=O)c1ccccc1[N+](=O)[O-],inactive: 50%
2,COc1ccc(Cl)cc1-n1nnc(-c2nc(-c3ccccc3)no2)c1C,inactive: 94%
3,Cc1ccc(Cn2c(CN3CCC(C(=O)NCc4ccccc4C)CC3)cc3ccccc32)cc1,inactive: 76%
4,COc1ccc2c(c1)c(=O)c(C(=O)c1ccc(C)c(C)c1)cn2CC(=O)Nc1ccc2c(c1)OCCO2,inactive: 76%
5,COc1ccc(NC(=O)C2COc3ccccc3C2)cc1Cl (centres undefined),inactive: 99%
6,C=CCNC(=O)c1ccc2nc(-c3ccco3)c(-c3ccco3)nc2c1,inactive: 116%
7,CCc1ccc(CNC(=O)c2c3c(nc4ccccc24)C(=O)N(C2CCCCC2)C3)cc1,active: 37%
8,CCOC(=O)c1ccc(N2C(=O)c3[nH]nc(-c4ccc(C)cc4)c3C2c2ccc(O)c(OCC)c2)cc1 (centres undefined),inactive: 87%
9,CCOC(=O)c1c(C)[nH]c(C)c1S(=O)(=O)N(C)CC(=O)Nc1cc(Cl)ccc1C,inactive: 94%
10,CCCn1c(=O)c2sccc2n2c(CCCC(=O)N3CCN(c4ccccc4OC)CC3)nnc12,inactive: 98%
11,Cc1ccccc1OCCCCn1c(-c2ccc(Cl)cc2)nc2ccccc2c1=O,inactive: 71%
12,COc1cc2c(=O)c(C(=O)c3ccc(C)c(C)c3)cn(Cc3ccccc3F)c2cc1OC,inactive: 105%
13,CCC(C)NC(=O)CSc1nc2cc3c(cc2c(=O)n1CCCC(=O)NCCc1ccc(OC)c(OC)c1)OCO3 (centres undefined),inactive: 86%
14,COCCNC(=O)c1ccc2c(=O)n(CCc3ccccc3)c(SCC(=O)CC(=O)OC)nc2c1,inactive: 88%
15,COc1ccccc1CNC(=O)c1ccc(CS(=O)(=O)c2c(Cl)cccc2Cl)o1,inactive: 61%
16,Cc1cccc(OCCSc2nc3ccccc3n2CC(=O)N2CCOCC2)c1,active: 44%
17,c1ccc2c(NC3CCCC3)nc(N3CCNCC3)nc2c1,inactive: 26%
18,CCC(C(=O)NCc1ccccc1)N(C(=O)Cn1nnc(-c2cccs2)n1)c1ccccc1OC (centres undefined),inactive: 84%
19,COc1ccccc1NC(=O)CSc1nnc(-c2ccccc2C)o1,inactive: 85%
20,O=C(NCc1ccccc1F)C1CCN(c2nnc(-n3cccc3)s2)CC1,inactive: 83%
